In all, about 310,000 compounds went through this assay and about 14,000 (4.5%) showed an effect of 50% or more. The effect is printed as a negative number. This is one part of the list.
Target: human ether-à-go-go-related gene (hERG) potassium channel (human, UniProt Q12809)
Test: primary screen, population patch clamp on CHO cells stably expressing hERG
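Further: peak tail current of the secondary pulse compared with the same well before compound.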

Chain of human ether-à-go-go-related gene (hERG) potassium channel (Q12809 whole entry, looked up): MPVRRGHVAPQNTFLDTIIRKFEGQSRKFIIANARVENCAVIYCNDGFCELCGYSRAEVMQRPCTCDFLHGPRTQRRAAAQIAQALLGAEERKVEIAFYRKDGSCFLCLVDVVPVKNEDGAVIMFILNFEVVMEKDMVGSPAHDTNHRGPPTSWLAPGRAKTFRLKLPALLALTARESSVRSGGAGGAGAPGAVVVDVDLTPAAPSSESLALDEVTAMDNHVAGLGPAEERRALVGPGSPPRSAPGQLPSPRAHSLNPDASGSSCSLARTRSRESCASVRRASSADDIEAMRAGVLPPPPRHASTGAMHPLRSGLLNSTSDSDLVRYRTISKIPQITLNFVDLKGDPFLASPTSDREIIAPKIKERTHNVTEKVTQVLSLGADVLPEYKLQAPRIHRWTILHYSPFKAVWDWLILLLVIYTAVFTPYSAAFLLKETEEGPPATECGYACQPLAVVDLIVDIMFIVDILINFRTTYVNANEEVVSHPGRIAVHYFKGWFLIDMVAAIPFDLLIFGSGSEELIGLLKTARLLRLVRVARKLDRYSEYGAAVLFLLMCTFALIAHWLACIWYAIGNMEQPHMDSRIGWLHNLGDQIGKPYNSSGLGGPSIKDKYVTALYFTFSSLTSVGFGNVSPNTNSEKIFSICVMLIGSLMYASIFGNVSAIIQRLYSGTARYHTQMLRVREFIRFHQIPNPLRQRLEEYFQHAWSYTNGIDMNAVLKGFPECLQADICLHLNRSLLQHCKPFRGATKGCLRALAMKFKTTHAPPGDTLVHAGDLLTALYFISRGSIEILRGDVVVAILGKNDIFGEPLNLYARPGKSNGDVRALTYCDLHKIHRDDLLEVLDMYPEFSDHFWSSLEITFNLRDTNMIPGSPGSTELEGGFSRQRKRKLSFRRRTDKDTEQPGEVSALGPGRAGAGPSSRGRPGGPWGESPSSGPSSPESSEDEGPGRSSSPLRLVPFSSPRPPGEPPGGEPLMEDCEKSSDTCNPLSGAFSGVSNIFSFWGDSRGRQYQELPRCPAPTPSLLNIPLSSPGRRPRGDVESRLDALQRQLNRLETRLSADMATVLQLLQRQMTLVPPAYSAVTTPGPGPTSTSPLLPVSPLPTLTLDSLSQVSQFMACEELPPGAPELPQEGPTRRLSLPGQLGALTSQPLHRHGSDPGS

Structure (SMILES) | hERG current change (%, negative = inhibition) at 10uM [%]
Cc1c(C(=O)NCc2cccnc2)oc2ccc(S(=O)(=O)N3CCCCC3)cc12 | -33.4
COc1ccc(-c2csc(NC(=O)COC(=O)c3ccc(Br)o3)n2)cc1 | 21.5
COC(=O)CCCC1=CC2=C(c3ccccc3)C(=O)C(C)(OC(=O)C3CCCC3)C(=O)C2=CN1C1CC1 (centres unmarked) | -10.8
Cc1ccc(S(=O)(=O)NC(CC(=O)O)c2ccc(F)cc2)cc1 (centres unmarked) | 10.1
Cc1cc(C)nc(N(C#N)CC(=O)c2ccccc2)n1 | -42.9
O=c1c2ccccc2[nH]c2ccc(O)cc12 | -2.76
COc1ccc2oc(=O)c(C(=O)C[n+]3cccc(C)c3)cc2c1.[Br-] | 5.73
Cc1ccsc1C(=O)OCC(=O)Nc1cccc(S(=O)(=O)NC2=NCCCCC2)c1 | -5.92
O=c1oc2ccccc2c(Cl)c1CN1CCCCC1 | 24.1
O=c1c2cc(F)ccc2[nH]c(=S)n1CCCN1CCOCC1 | -3.61
O=C(c1ccco1)c1n[nH]nc1-c1ccccc1 | 15.4
O=C(NCC1CCCO1)Nc1ccc2c(c1)OCO2 (centres unmarked) | 14.6
Cc1ccc(NC(=O)c2ccc(NCCCN3CCC(C)CC3)c([N+](=O)[O-])c2)c(C)c1 | -19.4
COc1ccc(-n2c(Cc3cccn3C)nnc2SCC(=O)Nc2cccc(C)c2C)cc1 | -47.1
COc1ccc(N2C(=O)CC(NNC(=O)c3cc(C)oc3C)C2=O)cc1 (centres unmarked) | 23.6
CCn1ncc(Br)c1C(=O)Nc1sc2c(c1C(N)=O)CCC2 | -2.94
O=C(/C=C/c1ccccc1F)c1cccc([N+](=O)[O-])c1 | 30.8
O=C1NC(c2ccccc2)Nc2c1sc(=S)n2-c1ccccc1 (centres unmarked) | -0.422
CCc1ccc(/C=C2\SC(=S)N(CCCC(=O)Nc3nccs3)C2=O)cc1 | 8.83
CC/S(CC1CC1(Cl)Cl)=N\S(=O)(=O)c1ccc(C)cc1 (centres unmarked) | 5.94
O=c1c2ccccc2nc(SCCN2CCCCC2)n1CCc1ccccc1 | -71.7
CC1C(=O)N(Cc2cccc(F)c2)c2ccccc2N1C(=O)c1ccccc1 (centres unmarked) | -4.75

Structure (SMILES) | hERG current change (%, negative = inhibition) at 10uM [%]
COCCn1c(C)cc(C(=O)COC(=O)c2ccc3c(c2)NC(=O)CS3)c1C | -2.47
CCOc1ccccc1N1CCN(CC(=O)Nc2ccccc2C(=O)NC2CC2)CC1 | -70.2
C/C(=N\Nc1ccc(S(=O)(=O)N2CCCCC2)cn1)c1ccc(O)cc1 | -37.2
CN(C)/C=C/C(=O)/C=C/c1ccc(Cl)cc1 | 1.35
COc1ccc(N2CCN(C(=O)COC(=O)CNC(=O)c3cccc(OC(F)F)c3)CC2)cc1 | -43.7
O=C(CN1CCN(Cc2ccccc2Cl)CC1)N/N=C/C=C\c1ccccc1[N+](=O)[O-] | -76.2
COc1ccccc1CN(CC(=O)NCc1ccco1)C(=O)CNS(=O)(=O)c1ccccc1 | -15.8
CC(/C=C/C=C/c1ccccc1)=N\NC(=O)c1cccnc1 | -19.1
Cc1ccc(P(=O)(CSC(=N)N)c2ccc(C)cc2)cc1.Cl | -24.9
N#C/C(=N\Nc1ccccc1Cl)C(=O)c1ccccc1 | 23.5
Cc1ccc(NC(=O)c2cc(S(=O)(=O)N3CCOCC3)cn2C)c(C)c1 | 0.0471
COc1cccc(CNc2ncc(-c3ccccc3)n2C)c1 | -35.6
CCCC(O)(c1ccc(CC)cc1)C(CN1CCOCC1)c1ccccc1.Cl (centres unmarked) | -7.6
CCn1nc(C)c(CNC(=O)c2cc(COc3ccc(F)cc3Cl)on2)c1C | -25.9
CCOC(=O)C1(Cc2ccccc2)CCN(Cc2cccc3c2OCO3)CC1 | -36.7
Cc1cc(OCC(=O)NC(C)C)ccc1Cl | 14.6
O=C(COc1ccc(Cl)cc1)NCc1nnc(SCC(=O)c2ccccc2)o1 | 3.94
Cc1ccccc1OCC(=O)Nc1c2c(nn1C(C)(C)C)CS(=O)(=O)C2 | -1.05
CCN(Cc1ccccc1)C(=O)Cc1c[nH]c2ccccc12 | 13.7
COC(=O)CSc1nnc(CNC(=O)c2ccccc2OC)n1C | -2.12
COc1ccc(-c2csc(NC(=O)CCN3C(=O)C4CC=CCC4C3=O)n2)cc1OC (centres unmarked) | -18
CCc1ccccc1NC(=O)CN1CCN(C(=O)CNC(=O)c2ccc(-c3ccccc3)cc2)CC1 | -57
